Experimental data: the supplement of paper PMC3334620
Whole data set: some 33,000 sequences, median “E-score (-0.5 to 0.5)” near -0.013, cut for the highest 2% near 0.3. The list shows a part of the results.

Biological target: T1, Msn1 (UniProt P22148)
T1 sequence: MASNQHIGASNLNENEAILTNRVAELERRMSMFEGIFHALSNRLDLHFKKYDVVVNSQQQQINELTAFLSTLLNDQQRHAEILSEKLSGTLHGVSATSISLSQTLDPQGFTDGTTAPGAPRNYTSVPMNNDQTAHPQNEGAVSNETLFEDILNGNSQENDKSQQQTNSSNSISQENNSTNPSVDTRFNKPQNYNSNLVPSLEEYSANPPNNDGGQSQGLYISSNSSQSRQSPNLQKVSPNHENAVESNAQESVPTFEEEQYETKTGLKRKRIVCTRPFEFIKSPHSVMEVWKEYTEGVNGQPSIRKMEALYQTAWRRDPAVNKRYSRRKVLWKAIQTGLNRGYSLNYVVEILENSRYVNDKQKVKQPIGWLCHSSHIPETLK
Assay: PBM E-score (8-mer binding enrichment) (E-score (-0.5 to 0.5)); higher = stronger / more preferred TF binding; most listed sequences are background and not binding sites
Settings: protein concentration: 200 nM; construct: GST-full length
Experimental: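 Universal 'all 10-mer' protein binding microarrays (Agilent AMADID 015681) probed with GST-tagged S. cerevisiae TFs (full-length or DBD) made by in vitro transcription/translation (PURExpress), about 100-200 nM. Bound TF was detected with fluorescent anti-GST. Each ungapped 8-mer (which stands for itself and its reverse complement) is scored by the PBM enrichment score (E-score), a modified Wilcoxon-Mann-Whitney statistic from -0.5 to +0.5, computed with the Universal PBM Analysis Suite. Scale: above 0.35 generally sequence-specific binding.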

Sequence	PBM E-score
ATGCAGGG	-0.256
CTAGCCAG	-0.132
AAGCACAA	0.182
CAGCATTA	-0.0545
AATCTCGC	0.127
AACTTTTG	0.184
GGCTATAC	-0.0759
CTTCGTAC	-0.175
ACCTAACT	0.113
GATGTGGA	0.186
GAATCCGA	0.0563
AGGTGAAC	-0.128
CTACAAAC	-0.0616
CCTCAACG	-0.221
GACCCCCA	-0.377
ATCATTCC	0.0188
CAAACATA	0.0118
ACGTGATC	0.03
ATGTTCGG	0.112
AGACCAAA	0.11
CTATACTA	0.202
GCAATTAA	0.0675

Sequence	PBM E-score
AAGGAGAG	-0.237
AAGGACTC	0.0633
AAACGTAG	-0.0553
AACAGTTG	0.101
ATTAGCGC	0.00734
ACCCGCCT	-0.265
ATCCACTC	-0.0464
TCGAGCCA	-0.0839
ACCTTTTG	-0.141
AGTGAGGG	-0.157
CGGAAACG	-0.018
CTCCAGTC	-0.165
ACGGCATA	0.101
AACGTGTG	-0.0744
ATGCTAAG	-0.00576
AAGAGCCT	-0.171
CTCCAATC	-0.0371
ATATTGTC	0.427
CAGACACG	0.147
GCCCAACC	-0.0372
TCTTAAGA	0.079
CTCGGAGA	0.016

Sequence	PBM E-score
AAATCGGG	0.0845
ATATCTAA	0.133
ACGCTCAC	0.236
GTCAGATA	0.0788
CTGATTGC	-0.184
GATACAGC	-0.00967
ATCATAGC	0.0218
AGAACAGC	-0.151
GAACTACC	0.013
CTAATCTA	-0.0307
CTGCTGAC	-0.0808
GAACACGC	-0.0425
GTCCTAGA	0.342
AAACCATG	0.0343
TGACGTCA	0.278
ACCTTTCA	-0.0241
ACGCGGCG	0.0154
GACGATCC	-0.107
CTATGGGA	-0.156
AAGTGCCC	-0.173
ACATACGC	0.149
ATGATACA	0.13

Sequence	PBM E-score
AAATACTT	0.116
GGCGTAAC	-0.299
AACCCGCT	-0.0999
ACTGAATA	0.00919
CGAGGTAA	0.0444
TCCGGCAA	0.128
CTTAGGTA	0.0762
AGAGACCA	-0.256
AACGACTA	0.0622
TAACTAGA	0.113
AATAATGG	-0.0233
CAATCACG	0.0396
TGTAAGAA	0.0929
ATAAACAG	-0.0233
CGGTTATC	0.0117
GGTAGATA	0.00672
GCTACAGC	-0.194
ACTGCCGA	0.0458
CACACAAC	-0.0106
AAACAGTT	0.104
